Drawing on patent US20260184782A1 (TWIST BIOSCIENCE, published 2026), this text covers Kd for 28 molecules.

Numbering of substitutions follows the chain as printed.

The Kd is the free concentration of one partner at which half of the binding sites on the other are occupied at equilibrium, for simple one-to-one binding. Higher therefore signals lower affinity.

B1: TIGIT-31-30 (Fc fusion)
chain: EVQLVESGGGLVQPGGSLRLSCAASGRTYNMGWFRQAPGKEREWVATIYSRSGGSTTYYADSVKGRFTISADNSKNTAYLQMNSLKPEDTAVYYCATYGYDSGRYYSWGQGTLVTVSSGGGGS[in this place human IgG1 Fc with C220S (EU numbers)]
B2: TIGIT-29-18 (Fc fusion)
chain: EVQLVESGGGLVQAGGSLRLSCAASGSTFSNYAMGWFRQAPGKEREFVSAINSSGSRTYYADSVKGRFTISADNAKNTVYLQMNSLKPEDTAVYYCAARLWGTWTAGDYDYWGQGTQVTVSSGGGGS[in this place human IgG1 Fc with C220S (EU numbers)]
notes: VHH-Fc
B3: TIGIT-29-34 (Fc fusion)
chain: B2 chain with S27F, S30R, A50S, N52S, G55S, Y59S
notes: VHH-Fc
B4: TIGIT-29-22 (Fc fusion)
chain: B2 chain with T28I, F29L, N31S, A33T, A50T, N52S, S53R, G55S, S56T
notes: VHH-Fc
B5: TIGIT-29-12 (Fc fusion)
chain: EVQLVESGGGLVQAGGSLRLSCAASGSTFSSYAMGWFRQAPGKEREFVAAITWSGTRTNYADSVKGRFTISADNAKNTVYLQMNSLKPEDTAVYYCAAAAWTIYTYDSWGQGTQVTVSSGGGGS[in this place human IgG1 Fc with C220S (EU numbers)]
notes: VHH-Fc
B6: TIGIT-29-40 (Fc fusion)
chain: B5 chain with S27F, S30D, S31N, A50T, T105D, S108Y
notes: VHH-Fc
B7: TIGIT-29-21 (Fc fusion)
chain: B5 chain with S31N, F47L, A49S, G55S, T56S, N59Y, T105N, Y106F, D107E, S108Y
notes: VHH-Fc
B8: TIGIT-29-30 (Fc fusion)
chain: B5 chain with S27F, N59D, T102R, I103Y, Y104S, T105E, S108Y
notes: VHH-Fc
B9: TIGIT-29-03 (Fc fusion)
chain: B5 chain with S27F, N59D, T102R, I103Y, Y104S, T105E, S108Y
notes: VHH-Fc; also called 29-3
B10: TIGIT-29-37 (Fc fusion)
chain: B5 chain with S27R, S31N, A50G, T52S, N59Y, T105E, S108Y
notes: VHH-Fc
B11: TIGIT-29-33 (Fc fusion)
chain: EVQLVESGGGLVQAGGSLRLSCAASGFIFSTYAMGWFRQAPGKERELVSAITRSGITTYYADSVKGRFTISADNAKNTVYLQMNSLKPEDTAVYYCAAAAWTIYEYDYWGQGTQVTVSSGGGGS[in this place human IgG1 Fc with C220S (EU numbers)]
notes: VHH-Fc
B12: TIGIT-29-27 (Fc fusion)
chain: EVQLVESGGGLVQAGGSLRLSCAASGRTFSNNVMGWFRQAPGKEREFVAAISWGGASTNYADSVKGRFTISADNAKNTVYLQMNSLKPEDTAVYYCAAGPKTPDTRNYWGQGTQVTVSSGGGGS[in this place human IgG1 Fc with C220S (EU numbers)]
notes: VHH-Fc
B13: TIGIT-30-57 (Fc fusion)
chain: EVQLVESGGGLVQAGGSLRLSCAASGPTFSIYDMGWFRQAPGKEREFVAAITWNSGRIGYADSVKGRFTISADNAKNTVYLQMNSLKPEDTAVYYCAAGVWSSLRHTAANWGQGTQVTVSSGGGGS[in this place human IgG1 Fc with C220S (EU numbers)]
notes: VHH-Fc
B14: TIGIT-30-20 (Fc fusion)
chain: B13 chain with A50V, T52N, N54S, S55R, R57S, I58T, G59F
notes: VHH-Fc
B15: TIGIT-30-14 (Fc fusion)
chain: B13 chain with I58T, G59N, V100A, H106K, N110S
notes: VHH-Fc
B16: TIGIT-31-27 (Fc fusion)
chain: EVQLVESGGGLVQPGGSLRLSCAASGFTFGHYAMGWFRQAPGKEREFVAAISWSGVSTYYADSVKGRFTISADNSKNTAYLQMNSLKPEDTAVYYCASSPYGPLYRSTHYYDWGQGTLVTVSSGGGGS[in this place human IgG1 Fc with C220S (EU numbers)]
notes: VHH-Fc
B17: TIGIT-29-31 (Fc fusion)
chain: EVQLVESGGGLVQAGGSLRLSCAASGFTFSIYAMGWFRQAPGKEREWVSTISWSGGNTYYADSVKGRFTISADNAKNTVYLQMNSLKPEDTAVYYCATRPRFRRYDSWGQGTQVTVSSGGGGS[in this place human IgG1 Fc with C220S (EU numbers)]
notes: VHH-Fc
B18: TIGIT-29-20 (Fc fusion)
chain: EVQLVESGGGLVQAGGSLRLSCAASGSTFSIYAMGWFRQAPGKERELVASISWSGDTTNYADSVKGRFTISADNAKNTVYLQMNSLKPEDTAVYYCAAGSVYGRNSWGQGTQVTVTSGGGGS[in this place human IgG1 Fc with C220S (EU numbers)]
notes: VHH-Fc
B19: TIGIT-30-49 (Fc fusion)
chain: EVQLVESGGGLVQAGGSLRLSCAASGNIFSRYIMGWFRQAPGKEREWVAGISNGGTTKYADSVKGRFTISADNAKNTVYLQMNSLKPEDTAVYYCAQGWKIVPTNWGQGTQVTVSSGGGGS[in this place human IgG1 Fc with C220S (EU numbers)]
notes: VHH-Fc
B20: TIGIT-31-24 (Fc fusion)
chain: EVQLVESGGGLVQPGGSLRLSCAASGRTFSMGWFRQAPGKEREFVATVRWGTSSTYYADSVKGRFTISADNSKNTAYLQMNSLKPEDTAVYYCAAETFGSGSSLMSEYDWGQGTLVTVSSGGGGS[in this place human IgG1 Fc with C220S (EU numbers)]
notes: VHH-Fc
B21: TIGIT-31-34 (Fc fusion)
chain: EVQLVESGGGLVQPGGSLRLSCAASGRSRYGMGWFRQAPGKEREFVSAISWSGISTYYADSVKGRFTISADNSKNTAYLQMNSLKPEDTAVYYCAATQWGSSGWKQARWYDWGQGTLVTVSSGGGGS[in this place human IgG1 Fc with C220S (EU numbers)]
notes: VHH-Fc
B22: TIGIT-30-54 (Fc fusion)
chain: EVQLVESGGGLVQAGGSLRLSCAASGFTFRSFGMGWFRQAPGKEREFVASTIWSRGDTYYADSVKGRFTISADNAKNTVYLQMNSLKPEDTAVYYCASSPYGPLYRSTHYYDWGQGTQVTVSSGGGGS[in this place human IgG1 Fc with C220S (EU numbers)]
notes: VHH-Fc
B23: TIGIT-30-15 (Fc fusion)
chain: EVQLVESGGGLVQAGGSLRLSCAASGFTFSGNWMGWFRQAPGKEREWVSGISSGGGRTYYADSVKGRFTISADNAKNTVYLQMNSLKPEDTAVYYCAADVWYGSTWRNWGQGTQVTVSSGGGGS[in this place human IgG1 Fc with C220S (EU numbers)]
notes: VHH-Fc
B24: TIGIT-30-52 (Fc fusion)
chain: EVQLVESGGGLVQAGGSLRLSCAASGRTFSNYFMGWFRQAPGKERESVATVTWRDNITYYADSVKGRFTISADNAKNTVYLQMNSLKPEDTAVYYCASAGRWGQGTQVTVSSGGGGS[in this place human IgG1 Fc with C220S (EU numbers)]
notes: VHH-Fc
B25: TIGIT-30-53 (Fc fusion)
chain: B24 chain with R27L, F33V, T50A, V51I, T52N, R54D, D55S, N56A, I57R
notes: VHH-Fc
B26: TIGIT-30-55 (Fc fusion)
chain: EVQLVESGGGLVQAGGSLRLSCAASGNTFSGGFMGWFRQAPGKEREWVASVLRGGYTWYADSVKGRFTISADNAKNTVYLQMNSLKPEDTAVYYCATGWQSTTKSQGWGQGTQVTVSSGGGGS[in this place human IgG1 Fc with C220S (EU numbers)]
notes: VHH-Fc
B27: TIGIT-30-9 (Fc fusion)
chain: EVQLVESGGGLVQAGGSLRLSCAASGPISGINRMGWFRQAPGKEREWVSTITFNGDHTYYADSVKGRFTISADNAKNTVYLQMNSLKPEDTAVYYCAARPYTRPGSMWVSSLYDWGQGTQVTVSSGGGGS[in this place human IgG1 Fc with C220S (EU numbers)]
notes: VHH-Fc
B28: TIGIT-29-06 (Fc fusion)
chain: EVQLVESGGGLVQAGGSLRLSCAASGGTFRSYVMGWFRQAPGKEREWVATINSSGSRTYYADSVKGRFTISADNAKNTVYLQMNSLKPEDTAVYYCAARPNYRDYEYWGQGTQVTVSSGGGGS[in this place human IgG1 Fc with C220S (EU numbers)]
notes: VHH-Fc; also called 29-6

In the assay the target is T1, TIGIT (T cell immunoreceptor with Ig and ITIM domains) (UniProt Q495A1 22-141, limits assumed).
T1 sequence (looked up): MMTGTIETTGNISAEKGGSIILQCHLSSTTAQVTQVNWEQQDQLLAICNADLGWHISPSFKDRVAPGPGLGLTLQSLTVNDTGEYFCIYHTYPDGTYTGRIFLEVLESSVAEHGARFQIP
The experiment in a line: SPR (Carterra), VHH-Fc. An excerpt:
The Carterra SPR system was used to assess binding affinity and affinity distribution for VHH-Fc variants. […] Table 5A provides specific values for the VHH-Fc clones for ELISA, Protein A (mg/ml), and KD (nM). FIG. 7A and FIG. 7B depict TIGIT affinity distribution for the VHH libraries, over the 20-4000 affinity threshold (FIG. 7A; monovalent KD) and the 20-1000 affinity threshold (FIG. 7B; monovalent KD).
The molecule B1 registered a Kd of 93 nM.
The figure for B2 is 78 nM; for B3 it is 80 nM; for B4 it is 65 nM.
B5 had a Kd of 70 nM.
With B6 the figure was 90 nM; with B7, 88 nM; with B8, 65 nM.
With B9 the figure was 94 nM.
The figure for B10 is 89 nM; for B11 it is 74 nM.
Molecule B12 came in with a Kd of 82 nM.
The figure for B13 is 95 nM; for B14 it is 74 nM.
With B15 the figure was 75 nM; with B16, 96 nM.
The figure for B17 is 96 nM; for B18 it is 83 nM.
In the case of B19, the Kd stood at 62 nM.
With B20 the figure was 75 nM; with B21, 70 nM.
With B22 the figure was 58 nM.
Regarding B23, the affinity, expressed as Kd, was 55 nM.
With B24 the figure was 49 nM; with B25, 78 nM; with B26, 85 nM.
For B27, the Kd worked out at 79 nM.
With B28, the affinity, expressed as Kd, was 69 nM.
